This passage reports activity change, negative = inhibition results from PubChem BioAssay AID1745853 (National Center for Advancing Translational Sciences (NCATS), 2022).

Structures are written as SMILES. Some of the results follow. These are further read-outs of the screen, such as a control signal, another cell line or another target. No call is given for them.

Common to all, as to assay: Primary Screen for Target Class Profiling of Small Molecule Inhibitors of Methyltransferases
Assay [1] deals with Glycine N-methyltransferase (Homo sapiens) (UniProt Q14749). Conditions: purified enzyme, MTase-Glo SAH luminescence; measured here: GNMT inhibition; at 40 µM; stronger effect = lower value. The gist of the method:
(§1)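 Each enzyme was assayed with SAM and its substrate. SAH formation detected by MTase-Glo luminescence; single-point 40 uM screen[…].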

Assay [2] has as its target Guanidinoacetate N-methyltransferase (Homo sapiens) (UniProt Q14353). The settings on record: purified enzyme, MTase-Glo SAH luminescence; measured here: GAMT inhibition; at 40 µM; stronger effect = lower value. The method in brief:
as §1

Assay [3] has as its target Histamine N-methyltransferase (Homo sapiens) (UniProt P50135). Conditions: purified enzyme, MTase-Glo SAH luminescence; measured here: HNMT inhibition; at 40 µM; stronger effect = lower value. The method in brief: as §1
Assay [4] concerns the target Nicotinamide N-methyltransferase (Homo sapiens) (UniProt P40261). Conditions: purified enzyme, MTase-Glo SAH luminescence; measured here: NNMT inhibition; at 40 µM; stronger effect = lower value. The gist of the method: as §1
The target of assay [5] is Phenylethanolamine N-methyltransferase (Homo sapiens) (UniProt P11086). Conditions: purified enzyme, MTase-Glo SAH luminescence; measured here: PNMT inhibition; at 40 µM; stronger effect = lower value. The gist of the method: as §1
% is set by controls: 0 for no effect and ±100 for the full control effect.

In the case of `Cc1cccc(C(=O)N2CCC(c3noc(CO)n3)C2)c1` (stereo not drawn), the activity change, negative = inhibition is -2.81% in assay [1]; -2.02% in assay [2]; -0.014% in assay [3]; -10% in assay [4]; -5.72% in assay [5].

On to `CCCN1C(=O)c2c(C(=O)Nc3c(C)cc(C)cc3C)ncn2CC1(C)C(=O)NC1CCCC1` (stereo not drawn), for which the activity change, negative = inhibition in assay [1] is -4.02%; in assay [2] it was 0%; in assay [3], -3.42%; in assay [4], -3.28%; in assay [5], -0.284%.

For `CC(C)CCn1c(=O)c2ccccc2n2c(CCC(=O)NCCCN3CCOCC3)nnc12`, the activity change, negative = inhibition in assay [1] is -4.05%; in assay [2], 4.25%; in assay [3], -3.83%; in assay [4], 9.5%; in assay [5], -0.508%.

Consider `O=C1Nc2ccccc2C2(CCN(C(=O)c3cccnc3)C2)O1` (stereo not drawn), for which the activity change, negative = inhibition is -19.6% in assay [1]; -5.99% in assay [2]; -3.47% in assay [3]; -16.6% in assay [4]; -2.43% in assay [5].

`COc1ccc(-c2cc3n(n2)CC(C)(C(=O)NCc2ccccc2OC)N(C2CC2)C3=O)cc1` (stereo not drawn): the activity change, negative = inhibition was -2.29% in assay [1]; 0.404% in assay [2]; 3.4% in assay [3]; 3.75% in assay [4]; -0.525% in assay [5].

For the compound `O=C(NCc1ccc(S(=O)(=O)c2cc(F)cc(F)c2)cc1)c1ccc2nccn2c1`, the activity change, negative = inhibition in assay [1] is -0.567%; in assay [2], -1.06%; in assay [3], 6.04%; in assay [4], -21.1%; in assay [5], -9.09%.

For `Cc1ccc(C)c(NC(=O)N2CCn3c(C)ccc3C2C(C)C)c1` (stereo not drawn), the activity change, negative = inhibition in assay [1] is 1.7%; in assay [2], 0%; in assay [3] it was -2.73%; in assay [4], -7.79%; in assay [5], -1.54%.

Take `CC(c1cccs1)N(C)Cc1ccc(C(F)(F)F)cc1` (stereo not drawn): the activity change, negative = inhibition was -2.89% in assay [1]; -0.405% in assay [2]; -0.932% in assay [3]; -0.102% in assay [4]; 11% in assay [5].

Regarding `Cc1cc(C)n(CCc2c(-c3ccccc3)ncn2C(C)CCCC(C)(C)O)n1` (stereo not drawn), the activity change, negative = inhibition in assay [1] was -6.79%; in assay [2], -7.15%; in assay [3], -3.29%; in assay [4] it was -11%; in assay [5], 1.04%.

As for `O=C(CCC1CCCN(S(=O)(=O)c2ccccc2)C1)NCCCN1CCCC1=O` (stereo not drawn), the activity change, negative = inhibition is 2.66% in assay [1]; 5.35% in assay [2]; 1% in assay [3]; -1.69% in assay [4]; -0.818% in assay [5].

Take `O=C(NC1CCCCC1)c1ccc2c(=O)nc3c(-c4ccc(Cl)cc4)n[nH]n3c2c1`: the activity change, negative = inhibition in assay [1] is -0.978%; in assay [2] it was 1.31%; in assay [3], 5.54%; in assay [4], 4.46%; in assay [5] it was 1.81%.

For the compound `CCc1ccc(CN2CCN(c3ccc(C(N)=O)cn3)CC2)nc1`, the activity change, negative = inhibition in assay [1] is -7.35%; in assay [2], -6.22%; in assay [3], -4.46%; in assay [4], -41.7%; in assay [5], -7.77%.

In the case of `CC(NC(=O)c1cc2n(n1)CC(C)(C(=O)NC1CCCCC1)N(C)C2=O)c1ccccc1` (stereo not drawn), the activity change, negative = inhibition is 4.66% in assay [1]; 0% in assay [2]; 2.35% in assay [3]; 6.71% in assay [4]; 2.31% in assay [5].

For `CC(C)Cn1c(=O)c2ccc(C(=O)NC(C)C)cc2n2c(SCC(=O)NC(C)(C)C)nnc12`, the activity change, negative = inhibition in assay [1] was -7.46%; in assay [2] it was 0%; in assay [3], -0.169%; in assay [4], -1.83%; in assay [5] it was -6.34%.

On to `CC(C)CNC(=O)c1ccc2c(=O)n(CC(C)C)c3nn(Cc4ccccc4)c(=O)n3c2c1`, for which the activity change, negative = inhibition in assay [1] is -0.984%; in assay [2] it was 4.53%; in assay [3], -1.01%; in assay [4] it was 0.245%; in assay [5], 0.097%.

Take `Cc1cc(CNC(=O)c2cc(C(=O)NCc3ccc(F)c(C)c3)ncn2)ccc1F`: the activity change, negative = inhibition in assay [1] was 0.288%; in assay [2] it was -4.49%; in assay [3], 13%; in assay [4], -12%; in assay [5], -3.22%.

Turning to `Cc1nc(-c2ccc(F)cc2)n(Cc2ccc(F)c(F)c2)c(=O)c1CCO`, the activity change, negative = inhibition in assay [1] was -3.62%; in assay [2], 1.76%; in assay [3] it was 3.4%; in assay [4], -11.8%; in assay [5], -2.23%.

Consider `Cc1cc(C(=O)N2C[C@@H](COCC3CC3)[C@H](c3ccccn3)C2)n[nH]1`, for which the activity change, negative = inhibition is -3.38% in assay [1]; 0.719% in assay [2]; 1.85% in assay [3]; -5.38% in assay [4]; 10.3% in assay [5].

Regarding `COc1cc2c(cc1O)C1(OC)Cc3ccc4c(c3C1N(C)CC2)OCO4` (stereo not drawn), the activity change, negative = inhibition in assay [1] is 0.392%; in assay [2] it was 1.51%; in assay [3], 6.09%; in assay [4] it was -12.5%; in assay [5] it was -5.3%.

For the compound `CC(C)(C)c1nn2c(SCC(=O)Nc3ccc(F)cc3)nnc2[nH]c1=O`, the activity change, negative = inhibition is -3% in assay [1]; 8.29% in assay [2]; -4.76% in assay [3]; -10.8% in assay [4]; -6.41% in assay [5].

For the compound `O=C(c1ccccc1)N1CCC2(CC1)C(=O)NN=C2c1ccccn1`, the activity change, negative = inhibition is -6.2% in assay [1]; -5.71% in assay [2]; -2.19% in assay [3]; -15.8% in assay [4]; -3.35% in assay [5].

As for `Cc1cc(OCc2nc(-c3ccccc3Cl)cs2)ccc1OCC(=O)O`, the activity change, negative = inhibition in assay [1] was -18.8%; in assay [2], -9.67%; in assay [3], 6.64%; in assay [4], -34.2%; in assay [5] it was -1.65%.

As to `CCOc1ccc(CN2C(=O)c3cc4occc4n3CC2(C)C(=O)NC2CCCCC2C)cc1` (stereo not drawn), the activity change, negative = inhibition in assay [1] was determined as 5.61%; in assay [2] it was 1.99%; in assay [3], 6.18%; in assay [4], 5.71%; in assay [5] it was 0.668%.

`CCC[C@@H]1C[C@@H](C(=O)N[C@@H]([C@H]2O[C@H](SC)[C@H](O)[C@@H](O)[C@H]2O)[C@@H](C)O)N(C)C1`: the activity change, negative = inhibition was 9.39% in assay [2], -4.56% in assay [4] and 4.12% in assay [5].

As for `CC1(C(=O)NC2CCCCCC2)Cn2nc(C3CC3)cc2C(=O)N1Cc1ccc2c(c1)OCO2` (stereo not drawn), the activity change, negative = inhibition in assay [1] is 0.362%; in assay [2], 0.911%; in assay [3] it was 4.96%; in assay [4], -9.96%; in assay [5], 0.473%.

As for `Cc1cccc(CSc2nnc3n(C)c(=O)c4ccc(C(=O)NC5CCCCC5)cc4n23)c1`, the activity change, negative = inhibition in assay [1] was -0.654%; in assay [2] it was 4.38%; in assay [3], 5.32%; in assay [4], 4.88%; in assay [5], 3.7%.

Consider `Cc1ccc(C)c(N2CCN(C(=O)CN(C)S(=O)(=O)c3ccc4[nH]c5c(c4c3)CCCC5)CC2)c1`, for which the activity change, negative = inhibition in assay [1] came out at 3.77%; in assay [2], 0%; in assay [3], 4%; in assay [4] it was 4.14%; in assay [5], 3.54%.

As to `N#Cc1c(Oc2ccc(F)c(NC(=O)Cc3cccc(C(F)(F)F)c3)c2)ccc2nc(NC(=O)C3CC3)sc12`, the activity change, negative = inhibition was 1.24% in assay [1]; -22.5% in assay [2]; 4.73% in assay [3]; -29.5% in assay [4]; -13.5% in assay [5].

Take `CCC(C(=O)NCc1ccc(OC)cc1)n1ccc2cc(S(=O)(=O)N3CCCCC3)ccc21` (stereo not drawn): the activity change, negative = inhibition in assay [1] was 2.33%; in assay [2], 3.93%; in assay [3], 3.56%; in assay [4] it was 0.197%; in assay [5], 0.589%.

`CCCN1C(=O)c2c(C(=O)NCc3ccc(C)cc3)ncn2CC1(C)C(=O)NC1CCCC1` (stereo not drawn): the activity change, negative = inhibition in assay [1] worked out at 3.47%; in assay [2] it was 0%; in assay [3] it was 1.29%; in assay [4], 3.44%; in assay [5], 6.98%.
